Results published in the supplement of paper PMC10126150.
Values marked as one replicate rest on one cluster of the flow cell; about a third of the high ones do not repeat.

Each sequence was assayed on ATP (assay: switch fluorescence ratio, 500 uM ATP over buffer (Cy3 cluster intensity, sum of 5 cycles each) (fold (ratio)); higher = stronger signal-on switching upon ATP binding; sequences stand for … in TCGTCGGCAGCGTCAGATGTGTATAAGAGACAGTTTTTTTTTTTTTTTTTTTTTTTTT…TC). Details: aptamer strand: ATP DNA aptamer (quencher-CACCTGGGGGAGTATTGCGGAGGAAGG + anchor), 100 nM annealed; ATP concentration: 500 uM; one replicate.
Outline: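 Cy3-labelled switching-strand clusters on a modified Illumina MiSeq flow-cell were annealed to 100 nM quencher-labelled ATP aptamer, imaged in selection buffer, then imaged after 15 min with 500 uM ATP at 22 °C. Five buffer/ATP cycles ran, with NaOH stripping and re-annealing between them. The fluorescence ratio is summed target-cycle over summed buffer-cycle Cy3 intensity per cluster, averaged per switch-domain sequence. Clusters outside 100-1000 RFU were excluded.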
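Further: ATP exposure 15 min at 22 °C before imaging.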

| Sequence | switch fluorescence ratio |
| --- | --- |
| TGATGAACCT | 1.93 |
| TCGGATCTTT | 0.982 |
| ATCCTGTGCA | 1.2 |
| TACGGCGGAT | 0.986 |
| ACCTATAGTG | 1.01 |
| GCTGGCGGAG | 0.972 |
| TACCACCTTT | 1.12 |
| CAGATCCGT | 0.961 |
| TACGACTGTT | 0.984 |
| GGCTATATCT | 1.03 |
| TACTTTTTGT | 0.998 |
| TCGCAGTCCC | 1.82 |
| ATCTATGTCT | 1.02 |
| TGCAAGCGGA | 0.965 |
| CATCATAATC | 1.05 |
| ACAATAGTGT | 1.02 |
| CGGAATGCT | 2.47 |
| TAAAATCTAC | 1.1 |
| TCAGCTTTTC | 1.01 |
| GATTGCTGGA | 0.992 |
| GCCGTTTATA | 0.994 |
| TGATGCGTGC | 1.03 |
| GACATTAGTA | 1.01 |
| GTGGGCTAGG | 0.986 |
| TATTTAGCTT | 1.03 |
| CATCCTCCCA | 1.08 |

| Sequence | switch fluorescence ratio |
| --- | --- |
| ATTAACAGAG | 1.01 |
| ACTTGAGCAC | 2.66 |
| GAGCAGTTAG | 1.17 |
| TGATCACGCT | 1.02 |
| TTATATCCAT | 0.972 |
| AGGAGGTACT | 1.03 |
| TGCAAAAGGA | 0.938 |
| GGTATGAGCC | 1.02 |
| GAGCGGAGGT | 0.984 |
| AGGAAGCACC | 1.16 |
| ATTCGGGCTA | 0.998 |
| GGATTGTCCA | 0.952 |
| GACCGCTTCT | 1.07 |
| GGGTTACTTG | 0.956 |
| AATATAGTGA | 0.971 |
| AGTACATGGT | 0.999 |
| TGGGTCAGCG | 1.04 |
| CGAGATTCTC | 1.01 |
| CCTGGCCCCA | 0.989 |
| TACAGCCTTG | 0.986 |
| GGCATAGGAA | 0.995 |
| GAGAAGACGG | 1 |
| GATCTCTGGA | 1.07 |
| GATATTAGAA | 0.973 |
| GTTGGGGACA | 1 |
| GGTACCTCG | 1.03 |

| Sequence | switch fluorescence ratio |
| --- | --- |
| AAAGTGAGGA | 1.02 |
| CTTTCGTCCG | 1.25 |
| GGGTTGAAAG | 0.996 |
| TTTGTATGCG | 1.01 |
| TACTACATTA | 1.05 |
| TCTCAGCATG | 1.37 |
| ATGAAGGTTG | 1.06 |
| CGAGTGTCCG | 0.93 |
| ACGAGCGAAG | 0.944 |
| ATTTTCCACA | 1.05 |
| CCATTGACAC | 1.04 |
| TTATGCGAT | 1.04 |
| CACGGGAAGA | 1.02 |
| GAACGACATT | 1 |
| GTAAGAAGCG | 0.969 |
| GCAGGGCGTT | 0.995 |
| CGATACAGGG | 1.02 |
| CTGATTTGTG | 0.992 |
| CCCGGGGTGG | 0.952 |
| TCGAAGTCGA | 1.1 |
| TGTGCCGGGT | 0.96 |
| CGACTTTCAT | 1.17 |
| AGTTACAGCG | 0.988 |
| TGTCTTGCGT | 0.974 |
| GACCCCGGGA | 1.02 |
| TGGTGGGGT | 1 |

| Sequence | switch fluorescence ratio |
| --- | --- |
| GCGCGCTATG | 1.02 |
| CGGAGCCAGC | 1.77 |
| CGATTCTAGT | 0.969 |
| AACGTCATGC | 1.16 |
| GCGAGGGAGC | 0.964 |
| GTGCCGTA | 0.983 |
| TTATTGTCAA | 0.995 |
| GGTTAACTCT | 0.984 |
| GTTCACTTGA | 1.03 |
| TCGCACATAG | 6.06 |
| CTTTGTTGGG | 0.954 |
| TCGAAGTCCA | 0.927 |
| CGGGGTTTCA | 0.975 |
| GCATATGAAT | 1.03 |
| AAGTCGTGCT | 0.952 |
| TTCAGTAAGT | 1.04 |
| TGGCTATGAG | 1 |
| CAAAGATAAC | 1.02 |
| CCGTATGCTT | 1.1 |
| TCCATCAATA | 1.28 |
| AGGGACTACC | 0.988 |
| CAGATGGGCT | 0.995 |
| GCGCTGGGTC | 0.968 |
| GCCCACCGGG | 1.02 |
| AAGATCT | 0.951 |
| GTATATTGTG | 1.02 |

| Sequence | switch fluorescence ratio |
| --- | --- |
| TGGAGACCAG | 0.994 |
| ATACTTCACT | 1.47 |
| CTATGATCAG | 1.01 |
| ATACTCTCTG | 1.01 |
| TTTAATGTAG | 1.06 |
| TTAATCTTGT | 1.01 |
| AAGTTACGCA | 1.11 |
| CTTCCAGCAT | 3.97 |
| TTGAAATATC | 1.02 |
| ATACACAAGA | 1.05 |
| GCCTTGATGC | 1.04 |
| TTACTTTGCG | 0.976 |
| CGAACGATA | 1.18 |
| ATGTTAGGAT | 0.978 |
| CGTGGGATCC | 1 |
| CTCCAGGGAC | 2.65 |
| GCCCACGCGG | 1.04 |
| CCTGTCAAGG | 1.01 |
| TGGTTATGTG | 0.989 |
| ATAAATTCCG | 0.95 |
| ACATGGGTAA | 1.01 |
| TTCGTCGGCA | 1.15 |
| CCTTGCGAAT | 1.33 |
| TTGTCGTTAG | 0.996 |
| AACATTTGA | 1.03 |
| TGTAGTAACT | 1.01 |

| Sequence | switch fluorescence ratio |
| --- | --- |
| GGCGCCACAA | 0.979 |
| CATTAGACAG | 0.976 |
| ATTTATATGG | 0.996 |
| TTGGTGCCGG | 1.01 |
| AGATAAGACA | 0.973 |
| TTTATTGTCG | 1 |
| ACACATGGCC | 1.05 |
| AGTCCTATCA | 0.985 |
| AGAGAATGAT | 1.02 |
| AATCGCGGGA | 0.999 |
| TTGGCTTATG | 1 |
| TCAGACAGTC | 1.01 |
| ACCCTGCGGG | 1.02 |
| GAAGATTAA | 1.02 |
| GCGAAGTTGG | 0.981 |
| GCACGAGG | 0.999 |
| ATGGTCGCGA | 0.981 |
| TAATGCTCTC | 1.02 |
| CTGGGCCAGT | 1.01 |
| CTTAGCTGCG | 1 |
| ATTGTACCGG | 1.04 |
| TTTTGGGG | 0.998 |
| CCATACAGCG | 0.993 |
| CATGTCTAAA | 0.953 |
| TCTCAGTATC | 1.08 |
| AGTAGCTCAT | 0.962 |

| Sequence | switch fluorescence ratio |
| --- | --- |
| TTTGGGGTGA | 0.918 |
| GCAAAGAGGC | 1.02 |
| GGGTAGATTG | 0.983 |
| TTGCCACTTT | 1.01 |
| TAGCGCAGG | 1.03 |
| GGTTGATCCT | 0.975 |
| GATGGTGTCC | 1.06 |
| TATTGGCGCG | 1.11 |
| GACTTGCGGG | 1 |
| GATCTCCTCT | 1.01 |
| ATTTAGTAAG | 0.991 |
| CTTTGCGA | 1.37 |
| CAGTGAGGG | 1.04 |
| TGCACTGGGG | 1.06 |
| TATCAGGGCA | 1.06 |
| CAGGTGCGTG | 1.02 |
| CGCGAGATGT | 1.05 |
| CCAGGCTGGG | 1.08 |
| GAAGAGCGTT | 0.969 |
| AACAATATGC | 1.01 |
| ATACGGGAC | 1.28 |
| GTTTTCATTA | 0.987 |
| ATTTACAAAG | 0.997 |
| TAATTCGGCC | 0.977 |
| GCTTATAGTA | 0.985 |
| CAATTTGTTA | 0.99 |

| Sequence | switch fluorescence ratio |
| --- | --- |
| GACAGTATAG | 0.987 |
| TTTACCCGTA | 0.984 |
| AGGCGTCG | 1.06 |
| ACATTGACAT | 1.18 |
| GTCAGGTTGG | 0.974 |
| TGTATGATAC | 1.07 |
| TAGGCGGTGG | 0.968 |
| TAATTAAATC | 1.01 |
| GCAACCTC | 1.18 |
| TCCGGGTT | 1.05 |
| ACTCGTATTC | 1.1 |
| GCACATGCGC | 1.06 |
| CTAATAGAAT | 0.961 |
| TGGCTCCCCA | 1.07 |
| CATGAGAG | 0.975 |
| ACGTCTCAA | 0.977 |
| AGTCGGATTA | 0.936 |
| ACCGTTCCAT | 1.01 |
| GTACCTGGT | 1.01 |
